Laboratory results published in US20090234023A1, “SUBSTITUTED HYDROXYACETOPHENONE DERIVATIVES” (Riemser Arzneimittel AG, priority 2004, published 2009).
Read-outs that look alike come from different tables or passages of the source.

Key:
[1] = system: mamma NCI-ADR (expresses MDR phenotype); details: for ED50 (effective dosage which killed 50% of the human cancer cells): NCIADR, 48 hours incubation
Method: All determinations were conducted as threefold determination.

[2] = system: MIAPaCa2 pancreas; C205 colon and T47D breast; experiment: Additional test of L2 on three tumour lines
Method: Moreover, this substance was tested on the following cell lines:
MIAPaCa2 pancreas; C205 colon and T47D breast and for comparison it was tested on the non-pathogenic line: WI38 (fibroblasts).

**Q.** With `CC(=O)c1ccccc1OCC=C(C)C` [Compound L1, 1-[2-(3-methylbut-2-enyloxy)phenyl]ethanone] as the compound, how does the cytocidal activity ([1]; NCI-ADR) read?
**A.** cytocidal activity

**Q.** And the “ED50 (effective dosage which killed 50% of the human cancer cells)” value [1]?
**A.** 8.0 µg/mL

**Q.** What does the source list for `CC(=O)c1cc(CC=C(C)C)ccc1O` [Compound L2]?
**A.** ED50 (effective dosage which killed 50% of the human cancer cells) [1]: 6.0 µg/mL; activity against the 3 tumour lines [2]: selectively active; activity against the 3 tumour lines ([2]; listed as 1-[2-Hydroxy-5-(3-methylbut-2-enyl)ethanone): selective properties
